Assay results: paper PMC10668032
This is one part of the list. At the low end of the ranking, values are background and their order means little.

Each sequence was assayed against SIX1 homeodomain (reference allele) (UniProt Q15475) (assay: universal protein binding microarray). Settings: Universal all-10-mer PBM (8x60K, AMADID 030236), 300 nM GST-tagged protein, Alexa Fluor 488 anti-GST; buffer, salt, pH and temperature not stated; high values mean tight binding; most listed sequences are background and not binding sites; double strand, one strand shown.

Sequence | binding signal
GGGAACCA | -0.261 E-score
ACGCGGTC | -0.122 E-score
AATAGAGC | -0.0381 E-score
GTGGGAGA | -0.0202 E-score
GAGTCTAC | -0.222 E-score
CCACGTTA | -0.111 E-score
AAGCTCAC | -0.0587 E-score
CACGCTGC | -0.0245 E-score
CCAAAGTC | -0.157 E-score
AGACCCTC | -0.148 E-score
ACAGTGTC | 0.0238 E-score
CTGATTTC | -0.109 E-score
CACCCATA | 0.154 E-score
CTGTTTAA | -0.063 E-score
AGAGATAC | 0.38 E-score
ATGCTCAC | -0.126 E-score
ATGGGATC | 0.368 E-score
GAATTACA | -0.0404 E-score
GTAACCCA | 0.169 E-score
TACTCTCA | -0.0207 E-score
CGCACACA | -0.108 E-score
CAATGCTC | -0.165 E-score
ACCGTGGC | -0.189 E-score
AGGACACT | -0.0785 E-score
GGACTGAA | -0.295 E-score

Sequence | binding signal
CACTTCCC | -0.169 E-score
CCCATACA | 0.0926 E-score
ACACTCCA | -0.0164 E-score
ACATTTTC | -0.167 E-score
AGTCTTAC | -0.111 E-score
CGTGAAAA | -0.243 E-score
CACCAGCC | 0.0347 E-score
CTTCCAAG | -0.142 E-score
GATCTGAC | 0.238 E-score
GCGGGACC | -0.243 E-score
CCGAGACA | 0.188 E-score
CTAGACCC | 0.103 E-score
CAACGGAC | -0.22 E-score
CGGGCCGA | -0.107 E-score
TACCACGA | 0.191 E-score
AGCGAAAC | -0.148 E-score
CCTCTCGA | -0.0263 E-score
ATATTTCA | 0.0592 E-score
CGAAGTCA | -0.172 E-score
GAGAAGCA | 0.0328 E-score
GGAATTAC | -0.184 E-score
AAGCGGGG | -0.0754 E-score
TCGCCAGA | -0.066 E-score
CTACCATA | 0.167 E-score
GACACTAA | -0.1 E-score

Sequence | binding signal
CGTCGCCC | -0.168 E-score
CGCCAGCC | -0.157 E-score
GTGGTTCA | 0.118 E-score
CGGCATAA | -0.0508 E-score
ACCCGTGG | -0.0261 E-score
AAAAGTCA | -0.312 E-score
CTTGCCAC | -0.151 E-score
AGCAAAGC | -0.249 E-score
AGACCCCC | 0.0014 E-score
GGCCATAA | -0.0624 E-score
CTAAGTTC | -0.177 E-score
AATGCAGA | -0.0421 E-score
CTCGTTCA | -0.0856 E-score
CGGCCAGA | 0.0419 E-score
GAGATGGA | 0.0841 E-score
CAGTACTA | -0.0442 E-score
CAACGATC | 0.277 E-score
AGCAGACC | -0.272 E-score
CTGATGCA | -0.0826 E-score
CATTTTTC | -0.157 E-score
CTATTTAA | -0.129 E-score
AGGTAGGC | 0.167 E-score
CCGGACGG | -0.0553 E-score
ACGTAACA | -0.0601 E-score
GGCACGAC | -0.11 E-score

Sequence | binding signal
CATGGGCG | -0.0545 E-score
ACATCCGC | 0.0351 E-score
CGCGTATA | 0.232 E-score
ACTGGTTC | -0.125 E-score
CACGAACG | -0.0101 E-score
AGCCTTCC | -0.106 E-score
GGGCTCAC | 0.268 E-score
ACGCGCCA | -0.192 E-score
CACGCACA | -0.0653 E-score
ATAGGGCG | 0.158 E-score
AGCTCAGA | -0.0115 E-score
AGCAACTG | -0.151 E-score
AACTAAGC | -0.131 E-score
ACTCCGCA | -0.11 E-score
GCGCGGAA | -0.124 E-score
ATGTCATA | -0.0499 E-score
CAGACCGA | 0.116 E-score
CGGGCACA | -0.0378 E-score
GCTGGACC | -0.184 E-score
CCTTGGAC | -0.207 E-score
ATCGTCAG | 0.0979 E-score
ACGACCAG | -0.0546 E-score
GCTTTATA | -0.00246 E-score
AAGCTTTG | -0.077 E-score
CGGTCACC | -0.108 E-score

Sequence | binding signal
AACAGCGG | -0.255 E-score
ATGTATCC | 0.407 E-score
CGGTGCTA | 0.177 E-score
GCCAGAGA | 0.107 E-score
AGCCCATC | -0.0568 E-score
GCCCCCGC | -0.0387 E-score
CTCTCCTC | -0.0876 E-score
AATAGTCA | -0.0564 E-score
CTAGACAG | -0.0706 E-score
CGCTGAAC | -0.113 E-score
AACTTTGG | -0.122 E-score
ACTAGTCC | -0.129 E-score
GAGTGAGA | 0.234 E-score
CTCGCTAC | 0.0552 E-score
AAGGCACT | -0.234 E-score
CTCTGCTC | -0.0803 E-score
ATTCACGC | 0.0582 E-score
AGATGGTA | 0.0826 E-score
CCCACCAC | 0.00391 E-score
AAGTGGTA | -0.0268 E-score
CCATCGTA | -0.00582 E-score
CACGGATG | 0.132 E-score
AGAGAGCG | 0.00635 E-score
CTCAAGAA | -0.0726 E-score
CGTGGGTA | 0.148 E-score

Sequence | binding signal
ACAGTGCG | -0.202 E-score
ATGCCCAG | 0.00732 E-score
AGCGTGCA | 0.0568 E-score
ATACCTAG | 0.392 E-score
AGGTAGAA | 0.0975 E-score
ACATACAC | 0.11 E-score
CCAGATAC | 0.409 E-score
AGTGCACC | -0.0484 E-score
GGATTCAC | -0.0111 E-score
AGGGCCCG | -0.0862 E-score
AGTAGACC | -0.0203 E-score
AATAATCC | 0.243 E-score
CCCCATAC | 0.0621 E-score
CAATAGGC | -0.0717 E-score
CCACCAAA | -0.108 E-score
AGAATTCC | -0.267 E-score
AGCCAACA | -0.141 E-score
CACGGATA | 0.397 E-score
GCACCGAC | -0.1 E-score
AGAGTTAA | -0.195 E-score
AAAGTGCG | -0.275 E-score
AACTCAGC | -0.221 E-score
GCGCCCAC | -0.154 E-score
AGCACGAT | 0.0364 E-score
CACGCTCC | -0.249 E-score

Sequence | binding signal
CTAGGGAC | -0.0435 E-score
AGTAAGTG | -0.0953 E-score
CTACCTCC | 0.0542 E-score
AGGAAATC | -0.181 E-score
AAGGGTGT | 0.32 E-score
CCCACGTC | -0.0514 E-score
CTCAGCAC | -0.148 E-score
GGTTCCTA | -0.0423 E-score
ATGCCAAC | -0.091 E-score
GACGAGTC | -0.0314 E-score
ACTGGTCA | -0.135 E-score
GGCTAGTA | 0.148 E-score
AGTATTAC | 0.188 E-score
CCTAAAGG | -0.0531 E-score
TACCGAAA | 0.0495 E-score
TAAGCAGA | -0.104 E-score
ATAATTGG | -0.0332 E-score
ACCCCACG | 0.182 E-score
TCTTCACA | -0.0523 E-score
AGGTCCGC | -0.231 E-score
AGTTCAGG | -0.141 E-score
ACACTCGC | 0.069 E-score
